# Reference: the supplement of paper PMC7826260
# Some of the results follow. Viral Rep nickase domains cut single-stranded DNA in vitro (1 h at 37 °C, 3 µM enzyme); the outer parts of the 90-letter strands are left off. Values are log2 of uncut reads against the no-enzyme pool; more negative means more cut, near 0 not cut, and no call is made. Reads are scaled to the total; values above 0 arise when much of the pool is cut.
# Tests used:
# Experiment in all cases: uncleaved DNA left, log2 of reads against the no-enzyme library (log2 ratio); higher = less cleavage (more negative = more Rep cleavage of the k-mer); sequences stand for … in CTCGTCCG…ACCGGAGA
# [1] = test system: T1, Rep nickase domain of Muscovy duck circovirus
# T1 sequence (residues 1-111 of Rep, tag left off): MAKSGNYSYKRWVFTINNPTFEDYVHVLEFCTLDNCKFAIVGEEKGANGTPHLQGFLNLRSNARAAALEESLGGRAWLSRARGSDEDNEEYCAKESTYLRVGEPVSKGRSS
# Method: (§1)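 A pool of 90-nt single-stranded DNAs with seven random bases just before the constant AC of the nick site (name = the seven bases) was cut by 3 µM recombinant His6-SUMO-tagged Rep nickase domain (300 nM DNA, 50 mM HEPES pH 8.0, 50 mM NaCl, 1 mM MnCl2, 1 h, 37 °C, three replicates). Uncut DNA was amplified and sequenced.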
# [2] = test system: T2, Rep nickase domain of banana bunchy top virus
# T2 sequence (residues 1-94 of Rep, tag left off): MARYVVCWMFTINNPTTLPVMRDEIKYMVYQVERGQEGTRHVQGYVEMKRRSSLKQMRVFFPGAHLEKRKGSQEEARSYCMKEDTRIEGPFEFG
# Method: as §1
# [3] = test system: T3, Rep nickase domain of cabbage leaf curl virus
# T3 sequence (residues 1-116 of Rep, tag left off): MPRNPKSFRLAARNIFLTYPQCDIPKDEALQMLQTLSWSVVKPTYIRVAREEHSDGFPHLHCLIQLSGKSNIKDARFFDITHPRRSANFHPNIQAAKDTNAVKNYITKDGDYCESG
# Method: as §1
# [4] = test system: T4, Rep nickase domain of chickpea chlorotic dwarf virus
# T4 sequence (residues 1-124 of Rep, tag left off): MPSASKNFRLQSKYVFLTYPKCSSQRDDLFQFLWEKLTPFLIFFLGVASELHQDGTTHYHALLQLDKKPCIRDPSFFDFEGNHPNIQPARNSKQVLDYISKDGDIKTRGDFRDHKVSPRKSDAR
# Method: as §1
# [5] = test system: T5, Rep nickase domain of faba bean necrotic yellows virus
# T5 sequence (residues 1-98 of Rep, tag left off): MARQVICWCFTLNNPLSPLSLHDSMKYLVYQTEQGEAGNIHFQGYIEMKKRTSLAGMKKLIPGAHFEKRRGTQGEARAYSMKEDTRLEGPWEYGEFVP
# Method: as §1
# [6] = test system: T6, Rep nickase domain of maize striate mosaic virus
# T6 sequence (residues 1-117 of Rep, tag left off): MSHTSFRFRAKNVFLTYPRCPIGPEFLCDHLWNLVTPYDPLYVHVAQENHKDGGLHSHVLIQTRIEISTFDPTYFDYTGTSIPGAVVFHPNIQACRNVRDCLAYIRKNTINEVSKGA
# Method: as §1
# [7] = test system: T7, Rep nickase domain of porcine circovirus 2
# T7 sequence (residues 2-116 of Rep, tag left off): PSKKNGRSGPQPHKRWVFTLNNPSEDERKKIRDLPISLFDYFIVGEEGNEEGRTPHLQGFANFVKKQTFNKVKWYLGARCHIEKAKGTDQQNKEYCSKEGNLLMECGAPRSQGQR
# Method: as §1
# [8] = test system: T8, Rep nickase domain of tomato yellow leaf curl virus
# T8 sequence (residues 1-136 of Rep, tag left off): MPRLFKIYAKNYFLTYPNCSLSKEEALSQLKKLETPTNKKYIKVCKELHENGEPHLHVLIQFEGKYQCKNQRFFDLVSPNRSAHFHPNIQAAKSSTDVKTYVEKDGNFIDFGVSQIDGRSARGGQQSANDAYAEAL
# Method: as §1
# [9] = test system: T9, Rep nickase domain of wheat dwarf virus
# T9 sequence (residues 1-137 of Rep, tag left off): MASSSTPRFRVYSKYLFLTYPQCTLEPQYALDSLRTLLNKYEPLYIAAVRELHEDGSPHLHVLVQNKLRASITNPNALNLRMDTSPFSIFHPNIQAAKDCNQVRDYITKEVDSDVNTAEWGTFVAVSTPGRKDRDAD
# Method: as §1
Sequence,uncleaved DNA left (log2) [1],uncleaved DNA left (log2) [2],uncleaved DNA left (log2) [3],uncleaved DNA left (log2) [4],uncleaved DNA left (log2) [5],uncleaved DNA left (log2) [6],uncleaved DNA left (log2) [7],uncleaved DNA left (log2) [8],uncleaved DNA left (log2) [9]
GTGTTCC,-0.0684,0.013,0.281,0.829,-0.0751,1.85,-0.0392,-0.0275,0.0129
TCCGAAG,0.0132,0.0795,-0.31,-0.239,0.0197,-0.522,0.152,0.129,-0.113
CTTGCGC,-0.0187,-0.0392,-0.679,-0.204,0.203,-0.65,0.145,0.0601,-0.12
CATTCTA,-0.801,-0.952,-0.286,-2.62,-0.155,-1.12,-1.43,-0.201,-0.0918
ATTAAGG,0.162,0.112,0.348,1.32,0.0523,1.15,0.162,0.0244,0.0423
GCTTACA,0.0213,0.0734,0.0677,-1.12,-0.0315,0.407,0.0474,0.0894,0.0654
CGAAGCG,0.0454,0.173,-0.638,-0.495,0.0628,-1.06,0.112,0.166,0.038
CGGACGC,0.0645,0.00533,0.683,1.67,-0.0316,1.79,0.174,0.0853,0.119
ATCGTCA,-0.00012,0.0741,-0.0118,-1.06,-0.00131,-0.602,0.0241,0.0551,-0.014
TAATTGA,-0.0796,0.12,-2.71,-2.62,0.111,-1.56,-0.104,0.0924,-0.772
GGGGGAT,0.0255,0.0768,0.732,1.96,-0.027,2.21,0.152,0.00345,0.139
TAAGTTA,0.0476,0.00949,-1.14,-2.42,0.0478,-0.342,-0.00425,0.00528,-0.829
ATCCTGG,0.0172,-0.136,-0.154,-0.185,-0.029,-0.772,0.158,-0.0854,-0.138
TGGCGAC,0.0646,-0.0261,0.056,0.644,-0.0646,0.71,0.141,-0.167,0.0234
CCAGGCA,0.0928,0.0036,-0.0355,0.185,0.0186,-0.554,0.0426,0.0646,0.115
